We go through 42 compounds from ChEMBL document CHEMBL4888484, “Replenishing the malaria drug discovery pipeline: Screening and hit evaluation of the MMV Hit Generation Library 1 (HGL1) against asexual blood stage Plasmodium falciparum ,using a nano luciferase reporter read-out” (2022).

About 540 (0.36%) of roughly 150,000 compounds showed an effect of 50% or more. Some of the results follow.

For the assay, the system named is Plasmodium falciparum. Kind of assay: Primary screen in NF54 nanoGlo assay, in single point, at 2uM, 72h; a lower Z score goes with more inhibition. Type of assay: functional, Erythrocyte. Particulars: timepoint 72 hour.
By % Inhibition is commonly meant the relative decrease from the control value, in per cent. For the compound `Cc1cccc(NC(=O)Cn2nc(N3CCC(C)CC3)c3ccccc3c2=O)c1`, the “% Inhibition” value is reported as -7% and the Z score is reported as 1.05.
The corresponding values for `FC(F)(F)c1cnc(CCCn2ccnc2)c(Cl)c1` are -9% and 1.19.
With `Cc1ccc(CNC(=O)N2CCCC(O)C2C)c2ccccc12` (centres undefined), the “% Inhibition” value is on record as -5% and the Z score came out at 0.88.
As to `CCCc1nnc(NC[C@H](C)n2nc(C)cc2C)o1`, the “% Inhibition” value is on record as 9% and the Z score is given as -1.02.
The corresponding values for `CCCCNC(=O)c1c(O)c2cccc3c2n(c1=O)CCC3` are -12% and 1.11.
The corresponding values for `C(=C\c1ccccc1)/CNCc1ccco1` are -9% and 1.2.
As to `Cc1nnc(-c2ccc3ccn(CC(=O)Nc4ccccn4)c3c2)o1`, the “% Inhibition” value was 8% and the Z score was -0.91.
The matching figures for `Cc1cc(=O)[nH]c(CCNC(=O)c2c(C)cc(C)n(C)c2=O)n1`: 0% and -0.07.
Turning to `CC(CC1CCCC1)C(=O)NC1CN(C(=O)OC(C)(C)C)CC1C#N` (centres undefined), the “% Inhibition” value was -3% and the Z score worked out at 0.24.
For the compound `CCn1cc(C(C)NC(=O)C(C)n2nc(C(F)F)c(Br)c2C)c(C)n1` (centres undefined), the “% Inhibition” value is listed as -37% and the Z score is on record as 4.31.
The corresponding values for `Cn1c(CN2CCCC2)nnc1[C@H]1CCCN(c2cc(C#N)ccn2)C1` are -10% and 1.86.
The corresponding values for `CC(C)Cc1n[nH]c(NC(=O)COc2cccc(-n3cnnc3)c2)n1` are -12% and 1.28.
Turning to `CN(C)[C@H]1CCN(c2cccc(C(F)(F)F)n2)C[C@H]1CCCO`, the “% Inhibition” value was -9% and the Z score is reported as 1.72.
The corresponding values for `CCN(CC)C(=O)[C@@H]1CCC[C@@H](NCc2ccc(F)cc2)CN(C)C(=O)C1` are 17% and -1.93.
For the compound `CC(C)(C)[C@H]1CCCN(C(=O)c2ncc[nH]2)CC1`, the “% Inhibition” value is reported as -18% and the Z score is 2.59.
Consider `CCc1nnsc1C(=O)NCC(C)N1CCCCC1C` (centres undefined), for which the “% Inhibition” value is given as -17% and the Z score worked out at 3.15.
As to `COCCC1(CN[C@H]2CCCc3c(OC)cccc32)CCC1`, the “% Inhibition” value stood at 3% and the Z score was -0.45.
The corresponding values for `Cc1nc([C@@H]2CCCN2S(=O)(=O)CCN2CCCC2)no1` are -12% and 1.7.
The matching figures for `Cc1ccc(CC(=O)Nc2cc(-c3ccccn3)no2)cc1`: -12% and 2.13.
Consider `CCc1nc2cc(N3CCC[C@H](C(=O)NCCN(C)C)C3)cnc2nc1CC`, for which the “% Inhibition” value amounted to 2% and the Z score was -0.46.
The matching figures for `CCCc1nc(C)cc(N(C)CCC2(O)CCCC2)n1`: 3% and -0.54.
Take `O=C(Nc1ccc(S(=O)(=O)N2CCCC2)cc1)Nc1cccc(C(F)(F)F)c1`: the “% Inhibition” value was -7% and the Z score is recorded as 0.95.
Regarding `COc1ccccc1-n1nc(Cc2ccccc2)n(CC(=O)NCCCO)c1=O`, the “% Inhibition” value is reported as -7% and the Z score came to 1.27.
The corresponding values for `COc1ccc(Br)cc1Cc1nnnn1CC(=O)N(C)[C@@H](C)c1ccccc1` are -6% and 0.56.
The corresponding values for `CC[C@@H]1Oc2ccc(NC(=O)CC(C)(C)C)cc2CN(Cc2cccc(OC)c2)C1=O` are 1% and -0.1.
The matching figures for `O=C(N[C@H]1CC[C@@H](CO)CC1)c1ccc2ccncc2c1`: -5% and 0.8.
Take `Cc1noc(C)c1CN(Cc1ccc(Cl)cc1)C1CC1`: the “% Inhibition” value is on record as -5% and the Z score came out at 0.42.
The matching figures for `O=C(Nc1ccc2c(c1)CCC2)c1cc2n(n1)CCN(Cc1cccc(Cl)c1)C2=O`: -9% and 0.84.
As for `CS(=O)(=O)c1ccc2nc(NC(=O)[C@@H]3COCC(=O)N3Cc3ccccc3)sc2c1`, the “% Inhibition” value is given as -8% and the Z score is 1.19.
`Cc1cc(-c2ccccc2)[n+]2ccccc2n1`: the “% Inhibition” value is given as -15% and the Z score was 2.36.
The corresponding values for `O=C(C[C@H]1Cc2ccccc2C2(CCN(C(=O)c3ccccc3)CC2)O1)N1CCOCC1` are -15% and 1.92.
The corresponding values for `CC(C)c1nn(-c2ccccc2Cl)c(C(C)C)c1C(=O)NC1CC1` are -2% and 0.31.
For the compound `Brc1cc2c(cc1Cn1nnc(-c3ccc4c(c3)OCO4)n1)OCO2`, the “% Inhibition” value is listed as -5% and the Z score came to 0.62.
Turning to `CC[C@H]1C(=O)NCCN1C(=O)c1ccnn1C`, the “% Inhibition” value is -4% and the Z score turned out to be 0.48.
The matching figures for `Cc1ccc2c(Nc3cccc(Br)c3)c(C(=O)N3CCCCCC3)cnc2n1`: -3% and 0.46.
The matching figures for `CCOC(=O)Cc1csc(NC(=O)N(C)[C@@H](C)CC#N)n1`: -6% and 0.93.
In the case of `COc1cc2c(cc1OC)C(Nc1cc(C)ccc1C)=NC(C)(C)C2`, the “% Inhibition” value is given as 34% and the Z score is listed as -4.42.
For `O=C1[C@@H]2CC[C@@H](c3ccccc3)N2C(=O)N1C1CCN(C2CCCC2)CC1`, the “% Inhibition” value is given as -10% and the Z score stood at 1.24.
Take `Cc1ccc(NC(=O)Cc2nc(C)c(C(=O)NCc3ccccc3)s2)cc1F`: the “% Inhibition” value is given as -13% and the Z score is 1.64.
Turning to `Cc1noc([C@H](C)NC(=O)NCc2ncnn2C(C)(C)C)n1`, the “% Inhibition” value is 12% and the Z score is given as -1.69.
The corresponding values for `COc1ccc(-c2nc3c(s2)[C@@H](NCCC2(O)CCC2)CCC3)cc1` are -16% and 2.81.
The matching figures for `CN(C)CCN1C(=O)N[C@@](Cc2cccc(F)c2)(C2CCN(C(=O)c3ccccc3F)CC2)C1=O`: -5% and 0.73.
